# Data as given in PubChem BioAssay AID686978 (National Center for Advancing Translational Sciences (NCATS), 2013).
# In all, about 420,000 compounds went through this assay and about 64,000 (15%) were called active. Inconclusive means that the source gave no clear call. Such entries were picked first, then a sample of the others. Calls follow the shape of the dose curve; as a rule, active = well fitted inhibition curve with a large enough effect; inconclusive = small, poorly fitted or top-dose-only effect; inactive = flat fitted curve, though single readings scatter. No potency is given beside an inconclusive call; the fits are too rough. Peptide text beside a SMILES is read from it.
# Assay: qHTS for Inhibitors of human tyrosyl-DNA phosphodiesterase 1 (TDP1): qHTS in cells in absence of CPT; also: nearly all actives have a fitted effect of over 55% in size
# Settings: DT40 Tdp1-/- hTDP1 cells, no CPT, ATP luminescence, 48 h; activity change, negative = growth inhibition: at 46.2 µM (top of the series) unless noted
# In short: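 Stably hTDP1-transfected Tdp1-null chicken DT40 cells were treated with library compounds minus camptothecin and grown for at least 48 hr at 37 °C, after which cellular ATP was quantified by luminescence.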
# % is scaled to controls: 0 for no effect and ±100 for the full control effect; potency is read from the fitted curve at half-maximal effect; tags tell the direction and shape of the fitted curve.
SMILES,Potency,"activity change, negative = growth inhibition"
CC(C)(C)OC(=O)N1CCC(c2c(C(=O)NCCc3ccccc3)cnn2-c2ccc(F)cc2F)CC1,active: 18.4 µM,–
COc1cc(Cl)c(C)cc1NC(=O)CC(c1ccc(F)cc1)N1Cc2ccccc2C1=O (stereo not drawn),active: 18.4 µM,–
COc1ccc(/C=C/C(=O)c2sc(-c3ccccc3)nc2C)cc1,"inconclusive [inhibitor, partial curve]",–
CSc1ncc(C(=O)Nc2ccc(C)cc2C)c(C)n1,"inconclusive [inhibitor, partial curve, poor fit]",–
CN(C)c1ncc2nc(-c3cc(F)cc(F)c3)c(=O)n(C)c2n1,inactive,–
OCC1(Cc2cccc(C(F)(F)F)c2)CCN(Cc2cc(F)cc(F)c2)CC1,"inconclusive [inhibitor, single point]",–
CCN(C(=O)COc1nc(C)cc(C)c1C#N)c1ccccc1,"inconclusive [inhibitor, single point]",–
O=C(CNC(=O)OCc1ccccc1)NCC(=O)Oc1ccc([N+](=O)[O-])cc1 (HELM PEPTIDE1{[O=C(OCc1ccccc1)[*:2]].G.G.[O=[N+]([O-])c1ccc(O[*:1])cc1]}$$$$V2.0),"inconclusive [inhibitor, single point]",–
O=S(=O)(Nc1ccccc1O)c1ccc(-c2ccccc2)cc1,"inconclusive [inhibitor, single point]",–
COc1ccc(CCNC(=S)NC2CCN(Cc3ccccc3)CC2)cc1OC,inactive,–
CC(C)CCNC(=O)C(c1ccco1)N(CC1CCCO1)C(=O)Cn1nnc2ccccc21 (stereo not drawn),–,inconclusive: -4.63% [inhibitor]
Cc1ccc(S(=O)(=O)NC(=O)C2(C)CCN2C(=O)c2ccc(C(F)(F)F)nc2C)cc1 (stereo not drawn),inactive,–
Cc1oc(=O)cc(OCc2ccccc2)c1C,inactive,–
Cn1c(=O)c(Oc2ccc(Cl)cc2)c(O)c2ccccc21,"inconclusive [inhibitor, single point]",–
FC(F)(F)c1nnc2sc(-c3ccncc3)nn12,inactive,–
CCOC(=O)COc1ccc2c(c1)c(C(C)=O)c(C)n2-c1ccc(OC)cc1,inactive,–
CC(CCc1ccccc1)NC(=O)C1CCC1 (stereo not drawn),inactive,–
C#CCn1c(=O)n(-c2cccc(Cl)c2C)c(=O)c2c3c(sc21)CN(C(C)=O)CC3,inactive,–
Cc1cc(C)c2c(CCl)cc(=O)oc2c1,active: 0.92 µM,–
Cc1ccc(OCC(=O)N(Cc2ccccc2)c2c(N)n(Cc3ccccc3)c(=O)[nH]c2=O)c(C)c1,inactive,–
Cn1c(SCc2ccccc2)nnc1-c1c[nH]c2ccccc12,"inconclusive [inhibitor, single point]",–
Cc1ccc(-c2noc(C3CCCN(S(=O)(=O)c4ccc(S(=O)(=O)N(C)C)cc4)C3)n2)o1 (stereo not drawn),–,inconclusive: -32% [inhibitor]
CC1(C)Oc2ccc3ccc(=O)oc3c2C[C@H]1O[C@@H]1O[C@H](CO)[C@@H](O)[C@H](O)[C@H]1O,inactive,–
C=CCNC(=S)NC(=O)c1oc2ccccc2c1C,inactive,–
Cc1ccn(S(=O)(=O)c2ccc(N3CCCC3=O)cc2)n1,inactive,–

SMILES,Potency,"activity change, negative = growth inhibition"
COc1ccc(C(=O)Cn2nnc(-c3ccccc3NC(=O)C3CCCCC3)n2)cc1,"inconclusive [inhibitor, single point]",–
COc1cc(C)ccc1S(=O)(=O)N1CCCCCC1,"inconclusive [inhibitor, single point]",–
C/C(CC(C)(C)C1CCCCC1)=N\NC(N)=S,active: 3.26 µM,–
Cn1c(=O)c2c(nc(NCc3ccco3)n2Cc2ccccc2Cl)n(C)c1=O,active: 2.06 µM,–
COc1ccc(/C=C/c2ccc3ccccc3n2)c(OC)c1,active: 11.2 µM,–
Cc1ccc(C)c(N2CCN(CCCNC(=O)c3cnn(-c4ccc(F)cc4)c3C3CCN(C(=O)OC(C)(C)C)CC3)CC2)c1,active: 3.26 µM,–
CCOC(=O)C1=CCN(S(=O)(=O)c2ccc(F)cc2)C1c1ccc(C)cc1 (stereo not drawn),"inconclusive [inhibitor, single point]",–
Cc1ccc(O)c(C2=Nc3ccccc3N=C(c3cccc([N+](=O)[O-])c3)C2)c1,"inconclusive [inhibitor, single point]",–
O=C(CN1CCN(C(=O)c2ccccc2)CC1)Nc1ccc(Cl)cc1F,"inconclusive [inhibitor, single point]",–
CC(C)Nc1ncnc2c1ncn2[C@H]1CN(Cc2cccnc2)C[C@@H](CO)O1,inactive,–
CC1(C)CC2=C(CO1)C(=S)NC(c1ccccc1)N2CC1CCCO1 (stereo not drawn),"inconclusive [inhibitor, partial curve]",–
Cc1c(NC(=O)CCC2CCCCC2)cc(C(=O)N2CCOCC2)cc1[N+](=O)[O-],"inconclusive [inhibitor, single point]",–
CC(c1ccncn1)N(C)C(=O)c1ccc2oc(Cc3ccccc3)nc2c1 (stereo not drawn),"inconclusive [inhibitor, partial curve, poor fit]",–
CC(C)C(=O)Nc1nc2c(s1)CC(C(C)(C)C)CC2 (stereo not drawn),"inconclusive [inhibitor, single point]",–
CCOc1ncccc1C(=O)OC(C)C(=O)Nc1ccc(Cl)cn1 (stereo not drawn),"inconclusive [inhibitor, partial curve]",–
CCn1cc(C(=O)NCc2cccc(F)c2)c(=O)c2cc(F)c(N3CCN(C(=O)c4ccco4)CC3)cc21,active: 8.2 µM,–
CCNC(=S)N1CCCC(C(N)=O)C1 (stereo not drawn),inactive,–
Cc1cc(NCCc2ccc(Cl)cc2)n2ncnc2n1,"inconclusive [inhibitor, single point]",–
CCOc1ccc(CNC(=O)Cn2nc(C)c3c(C)n(-c4ccc(C)cc4)nc3c2=O)cc1,inactive,–
COc1ccc(C)cc1S(=O)(=O)Nc1ccncc1,inactive,–
Cc1ccc(N2CC(C(=O)Nc3ccc(S(=O)(=O)N4CCCC4)cc3)CC2=O)cc1C (stereo not drawn),"inconclusive [inhibitor, single point]",–
COc1ccc(NC(=O)C2CCCN(c3c4c(nc5ncnn35)CCC4)C2)cc1 (stereo not drawn),active: 23.1 µM,–
O=S(=O)(c1ccc(Cl)s1)N1CCN(C/C=C/c2ccccc2)CC1,"inconclusive [inhibitor, single point]",–
Cc1ccc(C)c(CSc2nnc(C)n3c2cc2sccc23)c1,"inconclusive [inhibitor, single point]",–
Cc1noc(C)c1NC(=O)Nc1cccc2c1O[C@H](CN(C)S(=O)(=O)c1cn(C)cn1)[C@@H](C)CN([C@H](C)CO)C2=O,inactive,–

SMILES,Potency,"activity change, negative = growth inhibition"
O=C(CCS(=O)(=O)c1ccccc1)N(Cc1cccnc1)c1nc2ccc(F)cc2s1,active: 5.8 µM,–
O=C(COC(=O)CC1CC2CCC1C2)Nc1ccccc1Cl (stereo not drawn),"inconclusive [inhibitor, single point]",–
C(=N\Nc1nc2ccccc2s1)/c1ccc2c(c1)OCO2,"inconclusive [inhibitor, single point]",–
C=C1C(=O)C=C2CN(C(=O)c3ccccc3)[C@@](Cc3ccc(F)cc3)(C(=O)OC)[C@@H]12,active: 0.0517 µM,–
CCCCn1nnnc1C(c1ccccc1OC(F)(F)F)N1CCN(C/C=C/c2ccccc2)CC1 (stereo not drawn),"inconclusive [inhibitor, single point]",–
COc1ccc(NS(=O)(=O)c2ccc3c(c2)N(C(C)=O)CCO3)c(OC)c1,"inconclusive [inhibitor, single point]",–
COc1ccc(NC(=O)CSc2nc3ccccc3nc2N2CCCC2)cc1Cl,"inconclusive [inhibitor, single point]",–
CC(C)(C)OC(=O)N1CCCC(C(=O)Nc2cccc(C(=O)NCCCCc3ccccc3)c2)C1 (stereo not drawn),"inconclusive [inhibitor, single point]",–
O=C1C=CC(=O)N1Nc1ccc(Br)cc1,inactive,–
COc1ccc(C(=O)COC(=O)[C@@H](NS(=O)(=O)c2ccccc2)C(C)C)cc1,"inconclusive [inhibitor, single point]",–
CC(C1CC1)N(Cc1ccccc1)C(=S)Nc1ccccc1Cl (stereo not drawn),inactive,–
COc1cc(NC(=O)C(Cc2ccccc2)NS(=O)(=O)c2cccs2)cc(OC)c1 (stereo not drawn),inactive,–
Cc1ccc(-c2nnn(CC(=O)N3CCN(c4nc5ccccc5s4)CC3)n2)cc1,inactive,–
S=C(NCc1ccccc1)N1CCN(c2cccc(Cl)c2)CC1,"inconclusive [inhibitor, single point]",–
CC12CCC(C(=O)O)(c3nc4cc([N+](=O)[O-])ccc4nc31)C2(C)C (stereo not drawn),inactive,–
CCN1CCCc2cc(CN(CCN3CCOCC3)C(=S)Nc3ccc(OC)c(Cl)c3)ccc21,active: 9.2 µM,–
CC12CCC(=O)N1C(C(=O)Nc1ccccc1N1CCOCC1)CS2 (stereo not drawn),inactive,–
COC(=O)c1ccccc1NC(=O)c1cccc(COc2ccccc2Cl)c1,active: 8.2 µM,–
COc1ccc(NC(=O)C2CC(c3cc(OC)c(OC)c(OC)c3)=NO2)cc1OC (stereo not drawn),"inconclusive [inhibitor, single point]",–
CC(C)c1ccc(C(=O)NC(=S)NCc2cccnc2)cc1,active: 16.4 µM,–
CCOc1ccccc1C(=O)NC(C(=O)Nc1cccnc1)C(C)C (stereo not drawn),inactive,–
CCOc1ccc(/C=N/NC(=O)NC23CC4CC(CC(C4)C2)C3)cc1O,"inconclusive [inhibitor, single point]",–
CCOc1nc(NCc2ccco2)nc(Nc2ccc(OC)cc2)n1,"inconclusive [inhibitor, single point]",–
